Source: PubChem BioAssay AID1347417 (National Center for Advancing Translational Sciences (NCATS), 2020)
Among all 120,000 compounds or so, about 5,300 (4.4%) were called active. The shares of active, inactive and inconclusive entries below differ from those in the screen. Calls follow the shape of the dose curve; as a rule, active = well fitted inhibition curve with a large enough effect; inconclusive = small, poorly fitted or top-dose-only effect; inactive = no such curve, though single readings can be large or run the other way. Potencies beside an inconclusive call are fits to weak or partial responses and may not hold up.

test: qHTS Primary assay for Inhibitors of Plasmodium falciparum Dd2 growth in vitro; also: nearly all actives have a fitted effect of over 65% in size;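 as to activity, negative = inhibition: plate controls were DMSO vehicle for no effect and reference drug for full effect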; details: P. falciparum Dd2 growth, SYBR Green, 72 h; activity, negative = inhibition: at 28.9 µM (top of the series) unless noted; series mostly up to 28.9 µM
Description: Malaria, a parasitic disease spread to humans through the bite of a Plasmodium infected Anopheles mosquito, continues to be a global health burden affecting millions of people, with an estimated 228 million cases and 405,000 deaths in 2018. Concerns about safety and limitations of current antimalarial treatments strongly emphasize the need to develop new therapeutic options. The scarce number of chemotypes and validated drug targets with efficacy against the liver stage, have hindered development of new antimalarials. To address this, a chemoprophylactic drug discovery effort was conducted through a combined phenotypic high-throughput asexual blood stage and liver stage screen, providing a robust foundation to identify liver-stage active lead chemotypes. Compounds were initially screened against Plasmodium falciparum Dd2 strain parasites using a in vitro SYBRGreen-1 based 72 hr proliferation assay to identify novel chemotypes to advance to liver stage assays. NIH/NCATS Early Translation Branch Assay Submitter (PI): Anton Simeonov Ph.D.
Malaria-vivax Assay Protocol: PROTOCOL TABLE (as described by Inglese et al., 2007) SEQUENCE No. (e.g., 1, 2, 3, etc.); […] (e.g., Cells, Incubation, Reagent, etc.); VALUE; DESCRIPTION SEQUENCE, Parameter, Description 1; Reagent; 3 uL complete malaria growth medium, 1536 TC treated Black clear bottom plate 2; Controls; 23 nL positive control artesunate (300 nM final) to column 1; Neutral control DMSO to columns 2-4 3; Compound; 23 nL of compounds in dose response concentration (29 uM to 0.5 nM final) 4; Reagent; 5 uL malaria infected red blood cells (2.5% hematocrit final, 0.3% parasitemia 5; Time; 72 hours at 37C (5% O2, 5% CO2, 90% N2; 95% Rh) 6; Reagent; 2 uL lysis buffer/SYBRGreen-1, 25 sec shake immediately following dispense 7; Time; ~16 hours at 37C (5% O2, 5% CO2, 90% N2; 95% Rh) 8; Detector; EnVision (PerkinElmer) bottom read at 485/14nm excitation and 535/25 nm emission NOTES (numbers refer to sequence above): 1; Complete Malaria Growth Media: 1X RPMI-1640 w/L-glutamine, 5.5g/L Albumax II, 367 uM Hypoxanthine, 25 mM HEPES, 0.25% Sodium Bicarbonate, 35 uM Gentamicin sulfate 2; Controls were added using the Kalypsis Pintool (Wako USA) equipped with 1536 pinhead 3; Compounds were added in a 7-point, titration with a high final concentration of 29 uM by Pintool from seven inter-plate titrations of library plates and two DMSO control plates at the beginning and end (see Yasgar et al., 2008). 4; Red blood cells infected with Plasmodium falciparum Dd2 parasites were used. 6; Lysis buffer: 20 mM Tris-HCl, 10 mM EDTA, 0.16% Saponin, 1.6% Triton-X, 10X SYBR Green. REFERENCE: Inglese J, Shamu CE, Guy RK. 2007. Reporting data from high-throughput screening of small-molecule libraries. Nat Chem Biol. doi:10.1038/nchembio0807-438 Yasgar A, Shinn P, Jadhav A, Auld D, Michael S, Zheng W, Austin CP, Inglese J, Simeonov A. 2008. Compound Management for Quantitative High-Throughput Screening. J Lab Autom 13:79-89. doi:10.1016/j.jala.2007.12.004
Potency is read from the fitted curve at half-maximal effect; tags tell the direction and shape of the fitted curve.

Row | Compound | Potency | activity, negative = inhibition
1 | Cc1ccc(OC(=O)N2CCC(COc3ccc4c(cnn4CCC(=O)O)c3)CC2)cc1 | inconclusive: 25.1 µM [inhibitor, single point] | 
2 | CC1CCCCN1S(=O)(=O)c1ccc(C(=O)Nc2sc3c(c2C(N)=O)CC(C)(C)NC3(C)C)cc1 (configuration not stated) | inconclusive: 10 µM [inhibitor, partial curve, poor fit] | 
3 | Cc1ccc(NC(=O)CCS(=O)(=O)c2cccc3nonc23)cc1Cl | inconclusive: 2.51 µM [inhibitor, partial curve] | 
4 | COc1cc2c(cc1CN1C[C@@H]3CC[C@H](C1)N(CC1CCC1)C3=O)OCCO2 | inconclusive: 12.6 µM [inhibitor, single point] | 
5 | OC(Cn1ccnc1-c1cc(F)ccc1-n1cccn1)c1ccccc1 (configuration not stated) | inactive | 
6 | COc1ccc(-c2cc(N3CCCC(NC(=O)c4ccccc4Cl)C3)n[nH]2)cc1 (configuration not stated) | inactive | 
7 | Cn1nc(C2CCNC2)c2c(C(=O)NCC(F)(F)F)cc(C3CC3)nc21 (configuration not stated) |  | inconclusive: -52% [inhibitor]
8 | COCCC1(C(=O)O)CCCN(Cc2cn[nH]c2C2CCCCC2)C1 (configuration not stated) | inactive | 
9 | CCO[C@H]1CN(C(=O)c2ccc(OC)c(N3CCOCC3)c2)C[C@@H]1O | inactive | 
10 | CCC(=O)N1CCC2(CC1)CC(Cc1nc(CCOC)no1)CCO2 (configuration not stated) | inactive | 
11 | C#CCSc1nc2sc3c(c2c(=O)n1Cc1ccccc1)CCCC3 | inconclusive: 20 µM [inhibitor, single point] | 
12 | COc1ccc(Cc2nc3nccc(-c4ccc(OC)cc4)n3n2)cc1 | inconclusive: 17.8 µM [inhibitor, partial curve, poor fit] | 
13 | CCc1cccc(NC(=O)c2ccc3c(c2)N(C)C2CCCCN2C3=O)c1 (configuration not stated) | inconclusive: 0.282 µM [inhibitor, full curve, poor fit] | 
14 | Cc1ccc(C)c(CN2C(=O)c3ccccc3S(=O)(=O)c3ccc(C(=O)N4CCN(c5ccccc5)CC4)cc32)c1 | active: 5.62 µM | 
15 | O=C(NCCn1cc(SCc2ccc(Cl)cc2)c2ccccc21)c1cccs1 | inconclusive: 20 µM [inhibitor, single point] | 
16 | CCc1cccc(NC(=O)Cn2c(=O)c(-c3noc(C)n3)c3n(c2=O)CCCCC3)c1 | inconclusive: 17.8 µM [inhibitor, single point] | 
17 | O=C(NCC1CC1)c1cccc(OC2CN(Cc3cccc(F)c3)C2)c1 | inactive | 
18 | O=[S+]([O-])(c1cccc(C(F)(F)F)c1)N1CC(Oc2ccc(F)c(F)c2)C1 | inactive | 
19 | CC1(CCCCc2ccccc2)COc2ccc(C(=O)N3CC(O)C3)cc2N1 (configuration not stated) | inconclusive: 14.1 µM [inhibitor, single point] | 
20 | COc1ccc(OC2CCN(C(=O)C3CC3)CC2)c(C(=O)N2CCCCO2)c1 | inactive | 
21 | O=C1NCN(Cc2ccc(Cl)cc2)C12CCN(Cc1ccccc1C(F)(F)F)CC2 | inactive | 
22 | CCOCCc1nn2c(=O)cc(COC(=O)c3ccccc3NC(=O)C3CCCCC3)nc2s1 | inactive | 
23 | COc1ccc(-c2nnc3n2CCN([S+](=O)([O-])c2ccc(C)cc2)C3)cc1 | inconclusive: 17.8 µM [inhibitor, single point] | 

Row | Compound | Potency | activity, negative = inhibition
24 | COc1ccc(C(=O)N2c3ccccc3C(C)(c3ccc(Cl)cc3)CC2(C)C)cc1 (configuration not stated) | inconclusive: 12.6 µM [inhibitor, single point] | 
25 | CC(=O)N1Cc2ccccc2OC2(CCN(C(=O)c3cccc4[nH]ccc34)CC2)C1 | inactive | 
26 | Cc1ccc(-c2onc(C)c2C)cc1S(=O)(=O)N1c2ccccc2CC1C (configuration not stated) | inconclusive: 11.2 µM [inhibitor, partial curve, poor fit] | 
27 | O=S1(=O)c2ccccc2N(Cc2cccc(C(F)(F)F)c2)c2ccccc21 | inconclusive: 12.6 µM [inhibitor, partial curve, poor fit] | 
28 | Cc1noc(C)c1-c1cc(-c2cccc(N3CCOCC3)c2)cn2cncc12 | active: 6.31 µM | 
29 | Cc1ccc(C(=O)N2CC(N(Cc3cccnc3)CC(C)C)C2)s1 | inconclusive: 17.8 µM [inhibitor, single point] | 
30 | COc1ccc(-c2cc(C(F)(F)F)nc(SCCC(=O)Nc3cc(C)ccc3O)n2)cc1 | active: 1 µM | 
31 | O=C(O)C[C@@H]1CCN(C(=O)c2ccnc(Cl)c2)C[C@@H]1CCN1CCN(c2cccc(C(F)(F)F)c2)CC1 | inconclusive: 5.62 µM [inhibitor, partial curve] | 
32 | CC(C)Cn1nc2n(c1=O)CCN(S(=O)(=O)c1ccc3c(c1)CCCC3)CC2 | inconclusive: 17.8 µM [inhibitor, single point] | 
33 | O=C(C1CCCC1)N1Cc2ccccc2CC2(CCCN(Cc3ccccc3)C2)C1 (configuration not stated) | inconclusive: 7.94 µM [inhibitor, partial curve] | 
34 | Cc1cnc(C2CC2)n1CCNC(=O)CN1CCOCC1 | inactive | 
35 | Cn1c(NCCO)nc2c1c(=O)n(Cc1cccc(F)c1)c(=O)n2C | inactive | 
36 | Cn1ccc2c(C(=O)NCCc3cnc[nH]3)nc(-c3cnn(Cc4ccccc4)c3)cc21 | inconclusive: 31.6 µM [inhibitor, single point] | 
37 | CCCCN(CCCC)S(=O)(=O)c1ccc2oc(C(=O)NCc3ccc(C)cc3)c(C)c2c1 | active: 8.91 µM | 
38 | CCc1ccc(C(=O)NC2CCN(c3cc(-c4ccc(F)cc4)[nH]n3)C2)cc1 (configuration not stated) | inconclusive: 10 µM [inhibitor, single point] | 
39 | Cc1cccc(-c2ccc3c(c2)C(=O)N2CC[C@H](NC(=O)c4cccs4)C[C@H]2C(=O)N3)c1C | inconclusive: 6.31 µM [inhibitor, partial curve] | 
40 | Cc1noc(C)c1S(=O)(=O)N1CCC2(CC1)NCCc1c2[nH]c2ccccc12 | active: 5.01 µM | 
41 | CC(C)c1noc(-c2ccn3c(CNC(=O)c4ccc(F)cc4Cl)nnc3c2)n1 | inconclusive: 0.631 µM [inhibitor, partial curve, poor fit] | 
42 | CCc1nc2c(c(-c3ccc(OC)cc3)n1)CN(C(=O)c1ccc3c(c1)OCO3)CC2 | inconclusive: 17.8 µM [inhibitor, single point] | 
43 | COc1cc(NC(=O)c2cccc3c2C(=O)N(C2CCCCC2)C3)cc(OC)c1 | inconclusive: 7.94 µM [inhibitor, partial curve] | 
44 | CCN1CCC2(CCC1=O)CN(Cc1ccc(C)c3ccccc13)CCN2C (configuration not stated) | inconclusive: 8.91 µM [inhibitor, partial curve, poor fit] | 
45 | CCOCCn1c(=O)[nH]c2cc(C(=O)NCCc3ccc(C)s3)ccc21 | inactive | 
46 | O=C(c1ccc(F)cc1)N1C[C@@H]2C[C@H](C1)c1ccc(C3CCCCC3)c(=O)n1C2 | inconclusive: 14.1 µM [inhibitor, single point] | 

Row | Compound | Potency | activity, negative = inhibition
47 | COc1ccc(C(=O)N2CCC(Cc3nncn3Cc3ccccc3)C2)cc1 (configuration not stated) | inactive | 
48 | CC(C)C[C@@H]1N[C@H](C(=O)N2CCN(C)CC2)Cc2c[nH]c3cccc1c23 | inconclusive: 11.2 µM [inhibitor, partial curve, poor fit] | 
49 | O=C(c1cnccn1)N1CCN2C(=O)NC[C@H]2C1 | inactive | 
50 | Cc1ccccc1CCC1CCCN(C(=O)CCc2cnccn2)C1 (configuration not stated) | inactive | 
51 | CN(CC(=O)N1CCC(CCOc2ccccc2F)C1)S(=O)(=O)c1cccs1 (configuration not stated) | inactive | 
52 | Cc1ccc(C(=O)NC(C(=O)N2CCCCC2)C2CCN(C(=O)c3ccc(C)cc3)CC2)cc1 (configuration not stated) | inconclusive: 1.58 µM [inhibitor, partial curve, poor fit] | 
53 | CN1CCN(c2ccc(C(=O)N3CCC(n4cnnc4)CC3)cc2)CC1 | inactive | 
54 | CCOCCCNC(=O)c1nnn2cc(-c3ccccc3)[nH]c(=O)c12 | inconclusive: 20 µM [inhibitor, single point] | 
55 | Cc1ccc(-c2cccc(CN3C4CCC3CN(C(C)C)C4)c2)c(C)c1 | active: 10 µM | 
56 | COc1cccc(C(=O)N2C[C@@H](Oc3cccnc3)C[C@@H]2C(=O)N2CCOCC2)c1 | inactive | 
57 | Cc1ncsc1CN1CC(N(CC(C)C)C2CCOCC2)C1 | inconclusive: 7.08 µM [inhibitor, partial curve, poor fit] | 
58 | CCOc1cccc(C(c2c(C)n(C)n(-c3ccccc3)c2=O)c2c(C)n(C)n(-c3ccccc3)c2=O)c1OC | inconclusive: 12.6 µM [inhibitor, partial curve, poor fit] | 
59 | Cn1c(CN2C(=O)C3(CCOCC3)CC2c2nnnn2C(C)(C)C)nc2ccccc21 (configuration not stated) | inactive | 
60 | N#Cc1ccc(S(=O)(=O)N2CCCN(S(=O)(=O)c3ccccc3)CCC(=O)NCC2)cc1 | inconclusive: 15.8 µM [inhibitor, single point] | 
61 | Cc1nc2ccc(C(=O)NCc3cc4n(n3)CCN(C(=O)N(C)C)C4)cc2o1 | inconclusive: 0.141 µM [inhibitor, full curve, poor fit] | 
62 | COC(=O)c1ccc2nc(CO[C@H]3CN(Cc4ccc(OC)nc4)C[C@H]3F)[nH]c2c1 | inactive | 
63 | CN(C)c1nc2c(c(=O)[nH]1)CCN(Cc1cccc(OC(F)(F)F)c1)CC2 | inconclusive: 3.98 µM [inhibitor, single point] | 
64 | CC1(COc2cccnc2)COc2ccc(C(=O)NCCOc3ccccc3)cc2N1 (configuration not stated) | inconclusive: 6.31 µM [inhibitor, full curve, poor fit] | 
65 | CN(C)c1ccc(CN2CCOC[C@H]2c2ncc(-c3ccc(F)cc3F)[nH]2)cc1 | inconclusive: 31.6 µM [inhibitor, single point] | 
66 | O=C(c1ccc2cc[nH]c2c1)N1CCC(N2CC(OCC3CC3)C23CCCCC3)CC1 (configuration not stated) | inconclusive: 0.158 µM [inhibitor, full curve, poor fit] | 
67 | COc1ccc(-c2nc(CSc3nncn4c3cc3occc34)c(C)o2)cc1 | active: 10 µM | 
